Measured values reported in PubChem BioAssay AID1996.
≈ marks a conversion by molar mass, not a printed value.

conditions: buffer; pH 7.4; 200.0 µM

Compound | solubility kinetic
O=C1C2C3C=CC(CC3)C2C(=O)N1c1cccc(C(F)(F)F)c1 (stereo not drawn) | < 0.7 µg/mL
CCC(NC(=O)C1C2C=CC(C2)C1C(=O)O)c1ccc(C)cc1 (stereo not drawn) | > 47 µg/mL
Cc1c(-c2ccc(F)cc2)nc(N)c(C#N)c1-c1cccnc1 | 3.3 µg/mL (≈ 10.8 µM)
CCc1ccc(OCC(=O)NC(=S)Nc2ccc(C(=O)O)cc2)cc1 | 14.2 µg/mL (≈ 39.6 µM)
O=C(O)c1ccc(Cl)c(NCc2cccnc2)c1 | 34.6 µg/mL (≈ 132 µM)
Cc1ccc(C)c(S(=O)(=O)NC(C)CCc2ccccc2)c1 (stereo not drawn) | 4.7 µg/mL (≈ 14.8 µM)
Cc1ccc(-c2onc3ccc(C(=O)O)cc23)cc1 | > 38 µg/mL
N#C/C(=C/c1cccnc1)c1ccccc1 | 26 µg/mL (≈ 126 µM)
Cn1c(SCC(=O)Nc2ccc(C(=O)O)cc2)nc2scc(-c3ccccc3Cl)c2c1=O | > 72.9 µg/mL
Cc1cccc(N2CC(C(=O)NCc3ccco3)CC2=O)c1C (stereo not drawn) | > 46.9 µg/mL
CC(CN(C)C1CCN(C)CC1)c1ccccc1 (stereo not drawn) | 29 µg/mL (≈ 118 µM)
Cc1csc(SCC(=O)NC2CCC(C)CC2)n1 (stereo not drawn) | > 42.7 µg/mL
O=C(COC(=O)CCc1ccccc1)Nc1ccc(F)cc1Cl | 13.6 µg/mL (≈ 40.5 µM)
